The chains are these.
T1: UNK ZnF1-3 (human, UniProt Q9C0B0 31-174)
T1 sequence: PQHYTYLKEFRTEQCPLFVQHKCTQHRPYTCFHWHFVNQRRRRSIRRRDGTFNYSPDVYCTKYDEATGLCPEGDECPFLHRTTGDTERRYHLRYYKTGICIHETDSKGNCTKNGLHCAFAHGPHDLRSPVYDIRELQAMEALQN

B1: 34926277_34926397_4828_CDS_ENSG00000159140_ENST00000381679|human|control|control (ssRNA)
RNA: GGGAGUUCUACAGUCCGACGAUCGAGAGUAGAUGCUGUGGUAAAUUCAAUACCCUUACUAGUUCCUGUUGCAUCAGGUUCCAGAGCAAAAGGACCAGUAGAAGAUAGAGUUUCUCCUGCAUCAGCUUCACUAACACCAGGGUACAACAGAGGAUUGAGCAUCA
B2: chr17:57763070:57763071:+_ENSG00000141367_ENST00000269122|hu_hu|FALSE|FALSE (ssRNA)
RNA: GGGAGUUCUACAGUCCGACGAUCGGCAAAAUCCAUGAUAUUGUGCCUCCAUGCAGUUUCUAGGACGACAUCUGGCCUUAAAAGAUCGUAACAGGUAAACAGACAAGCUCCAAAGCACUCUCUUUUUUCUUCCUGCAAAAACCACAACAGAGGAUUGAGCAUCA
B3: chr19:38862730:38862731:-_ENSMUSG00000024999_ENSMUST00000025963|mus_mus|motif|central (ssRNA)
RNA: GGGAGUUCUACAGUCCGACGAUCUUUGUAAGUCAUUUCUACAAUGAUAAUAGCUAUUAUAUAAAAUAGUUCUUUAUAACGGUUUAUAAACAUAUACAGUUUUUAUCUGUAAGAAUUUAAGGUGGGCGGUGGUGGCGCACGUCUCAACAGAGGAUUGAGCAUCA
B4: chr3:132387698:132387699:+_ENSG00000081307_ENST00000264991|hu_hu|FALSE|FALSE (ssRNA)
RNA: GGGAGUUCUACAGUCCGACGAUCUUGAACUUUACUUAAUCCUGCUUGAUGAGGUUGGAAGAAAAGUCUAUUCAUAUUGGCUAGUUCCACCUUGUCAUAAUCAAAGAGUAGCAACUUACCAAUGCCACAUCUUGUCAGCAUUUCCAACAGAGGAUUGAGCAUCA
B5: chr4:25749455:25749456:-_ENSG00000091490_ENST00000264868|hu_hu|hu_hu_hu_mus_False|8_48 (ssRNA)
RNA: GGGAGUUCUACAGUCCGACGAUCGCACUAUGACCUCUAGAAAAAUCCACAGGGGGAAAAAAUGUAAACCAAUGUACAAUGUUAUCGCCCUCCCUGCGUGUGGAGUGUUUGUCUCAAGGCUCCUUCUUGCCUUAUAAUUUGGGACAACAGAGGAUUGAGCAUCA
B6: chr1:247070963:247070964:-_ENSG00000153207_ENST00000391829|hu_mus|FALSE|FALSE (ssRNA)
RNA: GGGAGUUCUACAGUCCGACGAUCCUGAUUUGUCCUGUUGAUGUAACUCAGAGUAGAAAUGGCUACUCCCAAUGGGCUUACUAACUGGAAGCACAGGUGGCGCCCCUCUCUCAUCACUCUCUCUCUGAUGUGUGGUACUUCAGCCAACAGAGGAUUGAGCAUCA

Some of the results follow.

The experiment concerns the target T1, UNK ZnF1-3. The experiment can be described thus: nsRBNS (natural sequence RNA bind-n-seq); RBNS binding buffer (assumed for nsRBNS): 25 mM Tris pH 7.5, 150 mM KCl, 3 mM MgCl2, 0.01% Triton X-100, 500 ug/ml BSA, 20 U/ml SUPERase-In, 4 C; UNK is unkempt and MSI1 is Musashi-1; names of the RNAs are library labels; protein concentration not given here; high values mean tight binding.
For the molecule B1, the binding signal came to 0.792 enrichment R. Next, B2: 1.14 enrichment R; B3: 1.49 enrichment R; B4: 0.799 enrichment R.

In the case of B5, the binding signal is 0.814 enrichment R. With B6 the figure was 1.05 enrichment R.

These data come from publication PMC12136788.
